According to PubChem BioAssay AID1466 (National Center for Advancing Translational Sciences (NCATS), 2008):
Out of some 200,000 compounds screened, about 10 (0.005%) were called active. This list was built around the results that the source calls inconclusive (neither active nor inactive); the mix of calls is not that of the screen. Calls come from the whole dose curve; as a rule, active = well fitted inhibition curve with a large enough effect; inconclusive = small, poorly fitted or top-dose-only effect, or effect the other way, or another doubt; inactive = no such curve, though single readings can be large or run the other way. Potencies of inconclusive entries are left out as doubtful fits.

Each molecule was assayed against Lysosomal alpha-glucosidase (Homo sapiens) (UniProt P10253) (assay: qHTS Assay for Inhibitors of Human alpha-Glucosidase as a Potential Chaperone Treatment of Pompe Disease). Conditions: purified human GAA, 4-MU-alpha-glucoside fluorescence; activity change, negative = inhibition: at 76.9 µM (top of the series) unless noted.
How it was run: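 Fluorescence at Ex 365/Em 440 nm from 4-methylumbelliferone reported enzyme activity after 20 min at room temperature. Reactions used 4 nM enzyme and 400 uM substrate at pH 5.0; curves fitted with the Hill equation.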
Potency is the fitted concentration of half-maximal effect; tags give direction and shape of the fitted curve.
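Throughout, for activity change, negative = inhibition: plate controls were uninhibited enzyme wells for no effect and no-enzyme background for full effect.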

| Structure (SMILES) | Potency | activity change, negative = inhibition |
| --- | --- | --- |
| COc1cc(/C=C/C(=O)Oc2coc(CSc3ncccn3)cc2=O)cc(OC)c1OC | inconclusive [activator, partial curve] |  |
| Oc1c(N=NC(=S)Nc2ccccc2F)c2ccccc2n1Cc1ccccc1 | inconclusive [inhibitor, single point] |  |
| Cc1cccc(NC(=O)c2ccc(-n3ccnc3)nc2)c1 | inconclusive [inhibitor, full curve, poor fit] |  |
| CCc1ccc(N(CC(=O)NC2CCCCC2)S(=O)(=O)c2c(C)noc2C)cc1 | inconclusive [inhibitor, partial curve, poor fit] |  |
| O=S1(=O)NC(=NCCOCCO)c2ccccc21 |  | inconclusive: 17.5% [activator] |
| O=C(CN1CCOCC1)Nc1ccc(NC(=O)CN2CCOCC2)c(Cl)c1 | inconclusive [inhibitor, partial curve, poor fit] |  |
| COc1cccc(OC)c1OCCN(C)C | inactive |  |
| Cc1ccc2c(c1)NC(=O)C(CC(=O)NCCCN1CCCC1)O2 (stereo not drawn) | inconclusive [inhibitor, single point] |  |
| CCCCN(CC)Cc1ccc(CNC(=S)Nc2cccc(F)c2)o1 | inconclusive [inhibitor, partial curve, poor fit] |  |
| CCCCNC(=O)CCNC(=O)c1ccc(C(C)(C)C)cc1 | inconclusive [inhibitor, partial curve, poor fit] |  |
| COc1cc(/C=N/NC(=O)c2ccc(Cl)c(S(N)(=O)=O)c2)ccc1OCC(N)=O |  | inconclusive: -18.2% [inhibitor] |
| COc1ccc(C2=CC(c3ccc(Cl)cc3)n3cnnc3N2)cc1OC (stereo not drawn) | inconclusive [inhibitor, single point] |  |
| Cc1ccc(NC(=O)Nc2sc(=S)n(C)c2C)cc1 | inactive |  |
| Cc1ccc(-c2nc(NCc3ccc(F)cc3)n(S(C)(=O)=O)n2)cc1 | inconclusive [activator, full curve] |  |
| Cc1ccc(-c2nnn(CC(=O)N(C)C3CCCCC3)n2)o1 |  | inconclusive: 8.48% [activator] |
| CSc1ccccc1NC(=O)Cn1nc([N+](=O)[O-])c(Cl)c1C |  | inconclusive: 11.2% [activator] |
| COc1ccc(-c2nnc(N3CCC(C)CC3)c3ccccc23)cc1 |  | inconclusive: -16.9% [inhibitor] |
| CSc1n[nH]c2nc3c(c(=O)n12)C1(CCCCC1)Cc1ccccc1-3 |  | inconclusive: 20.2% [activator] |
| COc1cc(OC)cc(C(=O)N2CCN(S(C)(=O)=O)CC2)c1 | inconclusive [activator, partial curve] |  |
| CCSc1ccc2cc(OC)ccc2[n+]1CC |  | inconclusive: 18.7% [activator] |
| CSCCC(C(=O)NCc1cccs1)N1C(=O)c2ccccc2C1=O (stereo not drawn) | inconclusive [inhibitor, single point] |  |
| CCOc1cc(CNc2ccc(O)cc2)cc(Br)c1OCc1ccccc1F | inconclusive [inhibitor, single point] |  |

| Structure (SMILES) | Potency | activity change, negative = inhibition |
| --- | --- | --- |
| Cc1nc2cc(NC(=O)N3CCN(c4ccccn4)CC3)ccc2o1 | inactive |  |
| Cc1cc(Cl)ccc1NC(=O)CSc1nnc(-c2ccncc2)n1Cc1ccco1 | inconclusive [inhibitor, single point] |  |
| CCS(=O)(=O)NCCNc1ccc([N+](=O)[O-])cc1 |  | inconclusive: 3.77% [activator] |
| Cc1ccc(-n2cc(CN3CCC(O)(c4ccccn4)CC3)c(-c3ccc(F)cc3)n2)cc1 | inconclusive [inhibitor, partial curve, poor fit] |  |
| CCCS(=O)(=O)N1CCCC(C(=O)NC2CCCC(C)C2C)C1 (stereo not drawn) |  | inconclusive: -15.4% [inhibitor] |
| C/C(CC(=O)Nc1ccccn1)=N\NC(=O)C(=O)Nc1cccc(C)c1 | inactive |  |
| COc1ccc(S(=O)(=O)N(CC(=O)NCC2CCCO2)c2ccccc2)cc1OC (stereo not drawn) | inconclusive [inhibitor, partial curve, poor fit] |  |
| CCC(CC)C(=O)Nc1cc(C(=O)NCCc2ccccc2)ccc1Cl | inconclusive [inhibitor, full curve] |  |
| Cc1ccccc1N1C(S)=C(C#N)C(=O)NC12CCCCC2 | inconclusive [inhibitor, single point] |  |
| O=C(Cc1ccccc1)Nc1ccccc1C(=O)O |  | inconclusive: -15.3% [inhibitor] |
| CC12CN3CCN(CC(C3)C1(O)CN1CCOCC1)C2 (stereo not drawn) | inconclusive [inhibitor, full curve] |  |
| CCOC(=O)c1cc2c(=O)n3cccc(C)c3nc2n(C)c1=N | inconclusive [activator, partial curve] |  |
| CCC(=O)NC(c1ccc([N+](=O)[O-])cc1)c1c(O)ccc2ccccc12 (stereo not drawn) | inconclusive [inhibitor, single point] |  |
| COc1ccc(C(c2nnnn2C2CCCC2)N2CCC(C)CC2)c(OC)c1 (stereo not drawn) |  | inconclusive: -17% [inhibitor] |
| O=C(CN1CCN(S(=O)(=O)c2ccc(Br)cc2)CC1)N/N=C/c1ccco1 | inconclusive [inhibitor, partial curve] |  |
| COc1ccc(OC)c(NC(=O)Nc2cc(C(=O)O)ccc2C)c1 | inconclusive [inhibitor, single point] |  |
| Cc1cc(C)c(S(C)(=O)=O)c(Oc2ccc(C(C)(C)C)cc2)n1 | inconclusive [inhibitor, single point] |  |
| O=C(Nc1cc(Sc2nc3ccccc3s2)cc([N+](=O)[O-])c1)c1ccccc1 | inconclusive [inhibitor, single point] |  |
| COc1cc(C(=O)Nc2ccc(-c3nnc(-c4ccco4)o3)cc2)cc(OC)c1OC |  | inconclusive: 19.4% [activator] |
| CC(C)(CO)N=Cc1c(O)[nH]c2ccccc12 | inconclusive [inhibitor, single point] |  |
| O=C(Cn1cnc2c(nnn2Cc2ccc(F)cc2)c1=O)N1CCCc2ccccc21 | inconclusive [inhibitor, full curve, poor fit] |  |
